Experimental data published in PubChem BioAssay AID2782 (National Center for Advancing Translational Sciences (NCATS), 2010).
The inconclusive results got no clear call from the source; some entries with a clear call stand among them for comparison. Where the call is inconclusive, the potency comes from a doubtful curve fit. A note “side channel” means that the fit belongs to a control or component signal, not to the main read-out. The source made the active and inactive calls. The call rests on the fitted dose curve; in most records, active means well fitted inhibition curve with a large enough effect in the polarisation, with a control signal flat (not every such curve was filed as active); inconclusive means small, poorly fitted or top-dose-only effect, or effect the other way, or a change in a side signal; inactive means no such curve, though single readings can be large or run the other way; the % refers to the polarisation.

Experiment: Confirmation of Inhibitors Targeting the Menin-MLL Interaction in MLL Related Leukemias: Competition With Texas Red Labeled MLL-derived Mutant Peptide
Settings: fluorescence polarization, Texas Red MLL peptide displacement; series mostly up to 94.6 µM
Text: qHTS Assay for Inhibitors Targeting the Menin-MLL Interaction in MLL Related Leukemias
NIH Chemical Genomics Center [NCGC]
NIH Molecular Libraries Probe Centers Network [MLPCN]
Assay Submitter (PI): Jolanta Grembecka, Tomasz Cierpicki, University of Virginia
Translocations of the MLL (Mixed Lineage Leukemia) gene are frequently found in human leukemias affecting both children and adults. Fusion of MLL to one of more than 60 genes results in generation of oncogenic proteins upregulating Hox genes, which are vital to blood cell development. Patients harboring fusion of the MLL gene suffer from aggressive leukemias and respond poorly to available therapies. All of the oncogenic fusion proteins have a preserved N-terminal fragment of MLL that has been identified to interact with menin. It has been recently discovered that association with menin is critical to the leukemogenic activity of the MLL fusion oncoproteins. Selective targeting of the menin-MLL interaction could provide an attractive therapeutic approach to develop novel drugs for MLL-related leukemias. Small molecules blocking the menin-MLL interaction should reverse the oncogenic potential of MLL fusion proteins.
We have developed and optimized a fluorescence polarization-based assay for the identification of Menin-MLL inhibitors. The assay was run employing two different MLL-derived peptides. The present assay uses a 12 amino acid peptide labeled with fluorescein at its N-terminus. This peptide consists of the menin high affinity binding motif from MLL and is potently bound by menin. Another peptide with a mutated sequence, labeled with Texas Red, was used in parallel as a less stringent screen for inhibitors.
The present assay was run to confirm the activity of hits from the primary screen using the peptide with a mutated sequence, labeled with Texas Red.
The Menin protein, the MLL-wild type (w.t.) derived peptide (N-terminal 12 amino acids), the MLL-derived peptide labeled with Texas Red and the MLL-w.t. peptide labeled with Fluorescein were kindly supplied by laboratory of Dr. Jolanta Grembecka, University of Virginia. All protein and peptide solutions were stored in single use aliquots at -80C. The Eu3+ Cyrptate-conjugated mouse monoclonal antibody anti-6 Histidine (Eu3+-AB) and the Streptavidin-XL665 conjugate (XL665) were purchased from Cisbio International (Bedford, MA). All antibody and XL665 conjugate solution stocks were stored in single use aliquots at -20C. The Buffer components for all assays were purchased from Sigma-Aldrich (St. Louis, MO) and Invitrogen (Carlsbad, CA).
1. FP reaction buffer: 50 mM Tris-HCl pH 7.5, 50 mM NaCl, 1mM DTT.
Before use, 0.05% BSA is added.
2. Menin protein, MLL-w.t. labeled with fluorescein, MLL-mutant peptide labeled with texas red.
Stored in singe use aliquots at -80C.
3. MLL-w.t. unlabeled peptide as positive control: 10 uM final in FP buffer.
1. Prepare Menin at 200 nM, MLL-w.t.-fluorescein at 25 nM, and MLL-mutant-texas red at 50 nM mixture in FP buffer.
2. Prepare Menin at 200 nM, MLL-w.t.-fluorescein at 25 nM, MLL-mutant-texas red at 50 nM, and 10 uM MLL-w.t. unlabeled mixture in FP buffer.
3. Prepare MLL-w.t.-fluorescein at 25 nM and MLL-mutant-texas red at 50 nM mixture in FP buffer.
3. Dispense 4 ul per well of reagent in step 1 in columns 2, 4 - 48 in a black 1536 well plate, dispense 4 ul per well of reagents from steps 2 and 3 in columns 1 and 3 respectively. Incubate plate at ambient for 15 minutes.
4. Transfer 23 nl per well of compound to plate and incubate at ambient for 1 hr.
5. Read fluorescence polarization for each label using the PerkinElmer Envision.
Envision protocol for fluorescein: FITC FP Dual Enh Mirror, Excitation filter 480, Emission filter (1) P-pol 535, Emission filter (2) S-pol 535
Envision protocol for texas red: FP Dual Enh Mirror, Excitation filter 555, Emission filter (1) P-pol 632, Emission filter (2) S-pol 632
Potency means the concentration at half of the fitted maximal effect; tags describe the fitted curve by direction and shape or compound fluorescence and quenching.

Compound	Potency
COc1cc2c(cc1NC(=S)NC(=O)c1c(OC)cccc1OC)oc1ccccc12	active: 11.2 µM
COC(=O)c1ccccc1NC1=C/C(=N\S(=O)(=O)c2ccc(C(=O)O)cc2)c2ccccc2C1=O	inconclusive: 89.1 µM [quencher, side channel, full curve]
O=C(NC1CCN(c2ncccn2)CC1)c1c(F)cccc1F	inactive
CSC[C@@H]1NC(=S)N(c2ccc(C)cc2)C1=O	inconclusive: 70.8 µM [fluorescent, side channel, full curve]
CCOc1cc(C(c2c(C)[nH][nH]c2=O)c2c(C)[nH][nH]c2=O)cc(Br)c1OC	inactive
Cc1cccc(Nc2nnc(SCC(=O)NC(=O)Nc3ccc4c(c3)OCCO4)s2)c1	inconclusive: 63.2 µM [fluorescent, side channel, partial curve]
CN(C)c1ccc(C2CC(=O)C=C(Nc3ccccc3N)C2)cc1 (stereo not given)	active: 63.2 µM
O=C(N/N=C/c1cn(-c2cccs2)nc1-c1ccccc1)c1ccccc1O	inconclusive: 39.8 µM [quencher, side channel, partial curve]
CCC(C)CCCCC(=O)NC(CCN)C(=O)NC(C(=O)NC(CCN)C(=O)NC1CCNC(=O)C(C(C)O)NC(=O)C(CCN)NC(=O)C(CCN)NC(=O)C(CC(C)C)NC(=O)C(Cc2ccccc2)NC(=O)C(CCN)NC1=O)C(C)O (stereo not given)	active: 7.08 µM
Cc1ccc(C(C[N+](=O)[O-])c2c(C)[nH]n(-c3ccccc3)c2=O)cc1 (stereo not given)	inconclusive: 63.2 µM [inhibitor, partial curve]
O=C(NCC1CCCO1)c1ccc(OC2CCN(C(=O)C3CC3)CC2)cc1 (stereo not given)	inactive
COc1ccc(CN2CCC(Cc3ccccc3)CC2)c(C)c1C	inconclusive: 50.2 µM [fluorescent, side channel, partial curve]
COc1ccccc1N(CC1CO1)S(=O)(=O)c1ccccc1 (stereo not given)	inactive
CC(=O)N1c2ccccc2C2(O)N=C(C)SC12 (stereo not given)	inconclusive: 282 µM [inhibitor, partial curve, poor fit]
O=C(C1CCCN(Cc2cccc(Cl)c2)C1)N1CCCCC1 (stereo not given)	inactive
O=C(C1=C(O)C(=O)N(CCN2CCOCC2)C1c1cccc(Br)c1)c1cccs1 (stereo not given)	inactive
COc1ccc(S(=O)(=O)Nc2cc(SCC(=O)O)c(O)c3ccccc23)cc1	inconclusive: 141 µM [quencher, partial curve, poor fit]
NS(=O)(=O)c1ccc(NC(=O)c2ccc(S(=O)(=O)N3CCc4ccccc43)cc2)cc1	active: 20 µM
COc1cnc(-c2ccccn2)nc1N(C)c1ccccc1	inconclusive: 28.3 µM [fluorescent, side channel, partial curve]
Cc1nc(N2CCN(C)CC2)c2c3c(sc2n1)CCCC3	active: 126 µM

Compound	Potency
Cn1c(=O)n(C)c2cc3[nH]cnc3cc21	inactive
CCCn1c(C2CCCN2c2nc(C)cs2)nc2cc(Cl)c(Cl)cc21 (stereo not given)	inconclusive: 28.3 µM [fluorescent, side channel, partial curve]
CC1CCCCN1S(=O)(=O)c1ccc(C(=O)Nc2ccccc2-c2nc3ccccc3[nH]2)cc1 (stereo not given)	inconclusive: 31.6 µM [inhibitor, partial curve]
COCCn1c(C)c(C)c2c(NCCc3ccccc3)ncnc21	inconclusive: 56.4 µM [fluorescent, side channel, partial curve]
O=C(/C=C/c1ccccc1)c1cccs1	inactive
COc1ccc(Cn2nnnc2C(c2ccccc2)N2CCN(C3CCCC3)CC2)cc1 (stereo not given)	inconclusive: 50.2 µM [fluorescent, side channel, partial curve]
O=c1cc(O)c2ccccc2n1Cc1ccccc1F	inactive
COc1ccc(CCNCc2cc(C)n(-c3ccc(OC)cc3)c2C)cc1	inconclusive: 50.2 µM [fluorescent, side channel, partial curve]
C[c-]1[c-](C)[c-](C)[c-](C)[c-]1C.[Fe].c1cc2nccc(N3CCCC3)[c-]2c1 (stereo not given)	inconclusive: 224 µM [inhibitor, partial curve, poor fit]
CCOc1ccc(CCNC(=O)C(C)N2C(=O)CC(C)(C)Sc3ccccc32)cc1 (stereo not given)	inconclusive: 28.3 µM [fluorescent, side channel, partial curve]
NC(=O)[C@@H]1CCCNc2c(I)cc([N+](=O)[O-])cc2C(=O)N[C@@H](CCCN=C(N)N)C(=O)N[C@@H](CCCN=C(N)N)C(=O)N1	active: 141 µM
CN(C)CCCOc1ccc2c(c1)Sc1ccccc1CC2=O	active: 141 µM
N#CC1=C(N)OC2=C(C(=O)CC(c3ccco3)C2)C1c1ccc(OCc2c(F)cccc2Cl)cc1 (stereo not given)	inactive
O=C1c2ccc(O)c(O)c2C(=O)c2c(O)ccc(O)c21	inconclusive: 31.6 µM [fluorescent, side channel, full curve]
Cc1ccc(NC(=O)C(C)N2C(=O)c3ccccc3C2=O)c(C)c1 (stereo not given)	inactive
COc1ccc(Cn2nnnc2C(c2ccc3ncccc3c2)N2CCN(C3CCCCC3)CC2)cc1 (stereo not given)	active: 89.1 µM
Cc1ccc(Nc2nc(N)[nH]c(=O)c2N=O)cc1	inconclusive: 126 µM [quencher, side channel, partial curve]
COc1cccc(C(=O)/C=C/Nc2ccc(S(=O)(=O)Nc3ccc(C(C)=O)cc3)cc2)c1	inconclusive: 44.7 µM [inhibitor, full curve]
COc1cc2cc3c4cc(OC)c(OC)cc4cc[n+]3c(C)c2cc1OC	inconclusive: 56.4 µM [inhibitor, partial curve]
CS(=O)(=O)c1ccc2nc(NC(=O)Nc3cccc(Cl)c3)sc2c1	inconclusive: 31.6 µM [quencher, side channel, partial curve]
